# Source: PMC9911399, “Two distinct binding modes provide the RNA-binding protein RbFox with extraordinary sequence specificity”
# Where a chain is given by its changes, count along the chain named. This is one part of the list.
# B1: GCCACCC (DNA:RNA)
# RNA: GGGAGACCGGAAUUCAGAUUGUCCGCCACCCUUAAAUCCCGUCGUAGCCACCA
# DNA 1: CAATCTGAATTCCGGTCTCCC
# DNA 2: TGGTGGCTACGACGGGATT
# B2: UAUCCGG (DNA:RNA)
# RNA: B1 RNA with G25U, C26A, C27U, A28C, C30G, C31G
# DNA 1: CAATCTGAATTCCGGTCTCCC
# DNA 2: TGGTGGCTACGACGGGATT
# B3: UACAAUG (DNA:RNA)
# RNA: B1 RNA with G25U, C26A, C29A, C30U, C31G
# DNA 1: CAATCTGAATTCCGGTCTCCC
# DNA 2: TGGTGGCTACGACGGGATT
# B4: GCAAUCC (DNA:RNA)
# RNA: B1 RNA with C27A, C29U
# DNA 1: CAATCTGAATTCCGGTCTCCC
# DNA 2: TGGTGGCTACGACGGGATT
# B5: GUCGGCC (DNA:RNA)
# RNA: B1 RNA with C26U, A28G, C29G
# DNA 1: CAATCTGAATTCCGGTCTCCC
# DNA 2: TGGTGGCTACGACGGGATT
# B6: AAUCAAC (DNA:RNA)
# RNA: B1 RNA with G25A, C26A, C27U, A28C, C29A, C30A
# DNA 1: CAATCTGAATTCCGGTCTCCC
# DNA 2: TGGTGGCTACGACGGGATT
# B7: AGCCGUU (DNA:RNA)
# RNA: B1 RNA with G25A, C26G, A28C, C29G, C30U, C31U
# DNA 1: CAATCTGAATTCCGGTCTCCC
# DNA 2: TGGTGGCTACGACGGGATT
# B8: AAAUAGA (DNA:RNA)
# RNA: GGGAGACCGGAAUUCAGAUUGUCCAAAUAGAUUAAAUCCCGUCGUAGCCACCA
# DNA 1: CAATCTGAATTCCGGTCTCCC
# DNA 2: TGGTGGCTACGACGGGATT
# B9: UCCAUGU (DNA:RNA)
# RNA: B1 RNA with G25U, C29U, C30G, C31U
# DNA 1: CAATCTGAATTCCGGTCTCCC
# DNA 2: TGGTGGCTACGACGGGATT
# B10: ACCACUU (DNA:RNA)
# RNA: B1 RNA with G25A, C30U, C31U
# DNA 1: CAATCTGAATTCCGGTCTCCC
# DNA 2: TGGTGGCTACGACGGGATT
# B11: AAGCUGC (DNA:RNA)
# RNA: B8 RNA with A27G, U28C, A29U, A31C
# DNA 1: CAATCTGAATTCCGGTCTCCC
# DNA 2: TGGTGGCTACGACGGGATT
# B12: AAGCUUG (DNA:RNA)
# RNA: B8 RNA with A27G, U28C, A29U, G30U, A31G
# DNA 1: CAATCTGAATTCCGGTCTCCC
# DNA 2: TGGTGGCTACGACGGGATT
# B13: CCUCGUC (DNA:RNA)
# RNA: B1 RNA with G25C, C27U, A28C, C29G, C30U
# DNA 1: CAATCTGAATTCCGGTCTCCC
# DNA 2: TGGTGGCTACGACGGGATT
# B14: CUAGUAG (DNA:RNA)
# RNA: B8 RNA with A25C, A26U, U28G, A29U, G30A, A31G
# DNA 1: CAATCTGAATTCCGGTCTCCC
# DNA 2: TGGTGGCTACGACGGGATT
# B15: CACCUUA (DNA:RNA)
# RNA: B8 RNA with A25C, A27C, U28C, A29U, G30U
# DNA 1: CAATCTGAATTCCGGTCTCCC
# DNA 2: TGGTGGCTACGACGGGATT
# B16: AUCGCCU (DNA:RNA)
# RNA: B1 RNA with G25A, C26U, A28G, C31U
# DNA 1: CAATCTGAATTCCGGTCTCCC
# DNA 2: TGGTGGCTACGACGGGATT
# B17: AGCCUGA (DNA:RNA)
# RNA: B8 RNA with A26G, A27C, U28C, A29U
# DNA 1: CAATCTGAATTCCGGTCTCCC
# DNA 2: TGGTGGCTACGACGGGATT
# B18: UACCCUC (DNA:RNA)
# RNA: B1 RNA with G25U, C26A, A28C, C30U
# DNA 1: CAATCTGAATTCCGGTCTCCC
# DNA 2: TGGTGGCTACGACGGGATT
# B19: UCUGCGG (DNA:RNA)
# RNA: B1 RNA with G25U, C27U, A28G, C30G, C31G
# DNA 1: CAATCTGAATTCCGGTCTCCC
# DNA 2: TGGTGGCTACGACGGGATT
# B20: CACGUAG (DNA:RNA)
# RNA: B8 RNA with A25C, A27C, U28G, A29U, G30A, A31G
# DNA 1: CAATCTGAATTCCGGTCTCCC
# DNA 2: TGGTGGCTACGACGGGATT
# B21: ACACCAA (DNA:RNA)
# RNA: B8 RNA with A26C, U28C, A29C, G30A
# DNA 1: CAATCTGAATTCCGGTCTCCC
# DNA 2: TGGTGGCTACGACGGGATT
# B22: AUUUUAA (DNA:RNA)
# RNA: B8 RNA with A26U, A27U, A29U, G30A
# DNA 1: CAATCTGAATTCCGGTCTCCC
# DNA 2: TGGTGGCTACGACGGGATT
# B23: CAAACAG (DNA:RNA)
# RNA: B8 RNA with A25C, U28A, A29C, G30A, A31G
# DNA 1: CAATCTGAATTCCGGTCTCCC
# DNA 2: TGGTGGCTACGACGGGATT
# B24: CGAUACU (DNA:RNA)
# RNA: B8 RNA with A25C, A26G, G30C, A31U
# DNA 1: CAATCTGAATTCCGGTCTCCC
# DNA 2: TGGTGGCTACGACGGGATT
# B25: UUCGUCG (DNA:RNA)
# RNA: B1 RNA with G25U, C26U, A28G, C29U, C31G
# DNA 1: CAATCTGAATTCCGGTCTCCC
# DNA 2: TGGTGGCTACGACGGGATT
# B26: UUACAUG (DNA:RNA)
# RNA: B8 RNA with A25U, A26U, U28C, G30U, A31G
# DNA 1: CAATCTGAATTCCGGTCTCCC
# DNA 2: TGGTGGCTACGACGGGATT
# B27: GAGGAUA (DNA:RNA)
# RNA: B8 RNA with A25G, A27G, U28G, G30U
# DNA 1: CAATCTGAATTCCGGTCTCCC
# DNA 2: TGGTGGCTACGACGGGATT
# B28: AAAUCCA (DNA:RNA)
# RNA: B8 RNA with A29C, G30C
# DNA 1: CAATCTGAATTCCGGTCTCCC
# DNA 2: TGGTGGCTACGACGGGATT
# B29: AAUACUU (DNA:RNA)
# RNA: B8 RNA with A27U, U28A, A29C, G30U, A31U
# DNA 1: CAATCTGAATTCCGGTCTCCC
# DNA 2: TGGTGGCTACGACGGGATT
# B30: CAGCGUU (DNA:RNA)
# RNA: B8 RNA with A25C, A27G, U28C, A29G, G30U, A31U
# DNA 1: CAATCTGAATTCCGGTCTCCC
# DNA 2: TGGTGGCTACGACGGGATT
# B31: GGCCAAU (DNA:RNA)
# RNA: B1 RNA with C26G, A28C, C29A, C30A, C31U
# DNA 1: CAATCTGAATTCCGGTCTCCC
# DNA 2: TGGTGGCTACGACGGGATT
# Molecular target: T1, RBFOX1 RRM (Homo sapiens, UniProt Q9NWB1 109-208)
# T1 sequence: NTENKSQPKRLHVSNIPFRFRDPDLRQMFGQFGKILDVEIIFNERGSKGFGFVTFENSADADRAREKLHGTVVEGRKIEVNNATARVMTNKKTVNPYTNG
# Experiment: EMSA; HiTS-Eq, 1 nM pool, 10 min; buffer printed only for the single-RNA assays: 10 mM Tris pH 7.5, 150 mM NaCl, 3.4 mM EDTA, 0.001% NP-40, 30 C
# Details: tags: His6 N-terminal (pET28a); label: 5' 32P
# Method in brief: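 Purified RbFox RRM, wild type or mutant, was incubated for 10 min in 50 µL with 1 nM of a 5′-radiolabelled RNA pool carrying 7 randomized nucleotides, whose flanks were annealed to DNA oligonucleotides, over a series of increasing protein concentrations. Unbound RNA was resolved on 8% native PAGE, cut out, reverse-transcribed, barcoded by PCR and sequenced on an Illumina HiSeq 2500. Relative association constants were derived from changes in read counts for each RNA species versus the control reaction and normalised to the cognate motif.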
row,Binder,binding signal
1,B1,0.00421 KA relative to UGCAUGU
2,B2,0.00956 KA relative to UGCAUGU
3,B3,0.00916 KA relative to UGCAUGU
4,B4,0.00851 KA relative to UGCAUGU
5,B5,0.0169 KA relative to UGCAUGU
6,B6,0.000441 KA relative to UGCAUGU
7,B7,0.00587 KA relative to UGCAUGU
8,B8,0.00419 KA relative to UGCAUGU
9,B9,0.00752 KA relative to UGCAUGU
10,B10,0.00384 KA relative to UGCAUGU
11,B11,0.00602 KA relative to UGCAUGU
12,B12,0.0197 KA relative to UGCAUGU
13,B13,0.00752 KA relative to UGCAUGU
14,B14,0.00793 KA relative to UGCAUGU
15,B15,0.00249 KA relative to UGCAUGU
16,B16,0.00212 KA relative to UGCAUGU

row,Binder,binding signal
1,B17,0.021 KA relative to UGCAUGU
2,B18,0.00756 KA relative to UGCAUGU
3,B19,0.0178 KA relative to UGCAUGU
4,B20,0.0088 KA relative to UGCAUGU
5,B21,0.000683 KA relative to UGCAUGU
6,B22,0.00236 KA relative to UGCAUGU
7,B23,0.000699 KA relative to UGCAUGU
8,B24,0.00565 KA relative to UGCAUGU
9,B25,0.024 KA relative to UGCAUGU
10,B26,0.0114 KA relative to UGCAUGU
11,B27,0.00863 KA relative to UGCAUGU
12,B28,0.00145 KA relative to UGCAUGU
13,B29,0.00188 KA relative to UGCAUGU
14,B30,0.00682 KA relative to UGCAUGU
15,B31,0.00309 KA relative to UGCAUGU
